According to the RNAGym collection of RNA variant scans (doi:10.1073/pnas.2313332121):
Variants at the background level are over-represented here.

B1: TPR 5TU (parent)
chain: GGAUCUUCUCGAUCUAACAAAAAAGACAAAUCUGCCACAAAGCUUGAGAGCAUCUUCGGAUGCAGAGGCGGCAGCCUUCGGUGGCGCGAUAGCGCCAACGUUCUCAACUAUGACACGCAAAACGCGUGCUCCGUUGAAUGGAGUUUAUCAUG

Variants of: B1
Assay: polymerase ribozyme fitness, log enrichment relative to wild type (log ratio); higher = more active; in vitro selection for triplet polymerase activity
Procedure, shortened: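 Streptavidin-bead capture of gel-excised extended constructs, followed by RT-PCR, closed a single triplicate in vitro selection round. That round began by annealing PCR-built, transcribed mutant libraries of each subunit of a heterodimeric triplet polymerase ribozyme with a biotinylated primer, the partner subunit and triplets, then incubating them frozen at −7 °C. After Illumina sequencing of inputs and outputs, genotypes needed ≥10 input reads and ≥1 read per output. Fitness is the base-2 logarithm of genotype enrichment over wild-type enrichment, using inverse-variance-weighted replicate averages.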

Polymerase ribozyme fitness (log ratio), -0.256:
A17U

Polymerase ribozyme fitness (log ratio), -0.469:
A17G G84A

Polymerase ribozyme fitness (log ratio), ≤ -4.2:
A17G A30G C36A C99A
A17U U77C C93U G100U A120U
A17U U56A G68A U145G
A17U A19U A41U C87U C103G G140A G143C
A17G C35U A41U A49C C95G A98U A110G A115C G117U A120G
A17U G81U U90G A91G G128A
A17G A28U A41C A52G U77G G86C
A17G C32U A49U C51U U55G
A17G C27G C57G A60U U61A C69U G70A C79U A142C C149U
A17G A30G C35U G50C A91U C105G C114A U144G
A17U A21U G67C C76U A91U C118G
A17U A41C U56A U90A C93G A97U C123U G128U
A17U G84A C96G A98G A107C U148C
A17U G83A G86U A142C
A17G G25A C32G G80U
A17G A49C C87G C123G G141A
A17G C57U G58U A60C C76G C108G G143C U151C
A17G C27A A89C A115U
A17U A49U C85A A97U
A17U A24U G50C C75G G83C A137C G141A
A17G C43A C54U C93G
C18A A52G C87A G92C C95A U104A
A17U A29G A41U U82G A89G U135G G141U
A17G G42A U45A A47C C85U U102G G141A U146C C149A
A17U U144A U151A
A17U U61G A91C C95A
A17G A41U G58C G59A U77A G84U A97U U102A C149G
A17U A28U C32U U111A U145G
A17U G88C C95G C103A
A17U A20U G50C
A17U C32G C57A U139A
C18G A20U C38U G50A G86A C105A C116A A121U G141C
A17U A19U A22G G88U A110G
A17U U53C G92A C129G
A17G A52G A73C A97U
A17U A20C C57U A60U C93A G94U A122C G126U
A17U C85G C116G C118A G143U
A17G A28U C32U A39U C57A C95A A110G U144C A147G A150C
A17U A49C G80C C87G C103U G143C U144A
A17G U31C A49C G50C C75G C93G
A17G C57U C96U U127C C131A G133U U146C
A17U G50U A91U C118U G136A
C18G A19G C27A C87U G94C A137C
A17U A49U A60G U61A A107C
A17U U61A C87G A115G
C18A A23U G58A A121G C132G
A17U A60C C85A A106U G141A
A17G A52U A64U G65A G86C A107C G128A
A17G U151G
C18G A20G C51A U77A C87G U144A
C18G A40G A52C G58A G84U A91U U151G
C18A G50C G81U C93A C103G
C18G A19U A20U C36U G68A C93G C108G
A17U U45G A52G C96A C108A A113U C131A U139A G140A
A17U A28U U56C G92U C118G G140U
A17G A22U G88U U144G
A17U C18G G42U U45G C105G C116A
A17U A30C C72U C75U C85G
A17U A64G A66C G84U C116U
C18A U56A C75A G83A
C18G A26U C35U U78A C99G U135C A147C
A17U A19G A26C A47C A66U G86U U111A
A17U A29C A40U U53A C85A C96A G143A
C18G A21C A49C C93A
A17G C54G U55C C69U G71C G84A C93A
C18G A30U G50A C54U G67C G94A U111C G124C G141A G152A
A17U A30C G81C C105U
A17G C27U A30G U45G C57U G83U G88A
A17G A49C G58A C85G C87G
A17G G50C A137G U144G
C18A A23C C57U A73G C95A G136U G140U G143C
C18G A28U G48C A49C G84U C108G C116G
A17U C18A G46C A47G G86C A89U A150G
A17G C43A C75A
A17G A40C A47C C54G G67A C85U G86C C95A U144A U145C
A17U U31G U44G G50A C75A A91G A97G C99A A106U U144G
A17U A26C A41C C118A
A17G C51U C54U G74A G88U C96G
C18A C27G C38U C93U A107C
C18G A24U A28U A52C C85U C93A A122U G124C U134C G140C
A17U C93U C114A C116G
C18G A20C U55G U61G G68C A89G
A17U A22C A23G G25A G50C U55A C75A G80A C87U U90C C103A
A17G G67C G86A
C18G A41U C76G C93A C125G U139C C149G
A17U U44A G50A C87U A98G A142G
A17U A40G U44A G84A A97U G112U
A17U A29U A120C G128U
A17G G70C G86C
A17U U56A U82G C93A G128A
C18A C85U G88C C118A C131U
A17G U31C G46A C76U C96U A120G C125G
A17U A19C G42U U56C C76A G88A
A17U A23C U44C A60C A66C C72A G84U G140C
A17U C38G A91C A106U G136C
A17U A19U C63U G68C C95U C96A G140A
A17G A52C C54A G67A C85G C93G C118A G128A
C18A A29C C69U G80A C93A
A17U A24U C57A C63U G65C C76G C93U C105U C123G A137G
A17G A24U A37C A41U G84A U101C C105A U111G C118U
C18G A28G A52G G71A G92A U111C A122C A147U
A17U G46U G74C C85A C118U C125G
A17U A49G G68C C87U
C18A A20U C27G A30U U56G A64U G84U U102C G112U G124C
A17G G25C G50A G86A C93G
A17U U31C G34C A37C U45A C51U C87G C114G U135G
A17U A37U G59C G67C A91U A113C C123G G140U
C18A A20G A22C A49G G68A C85U G141A
A17U C54U G59C A66G C87A C129G
C18G A21C G68U C96A C114A
C18A A22G G81U C87G C108G A120G
A17U G25C C38U A49C G70A C96U U145A
A17G A30U A52C G81A
A17G C76A C87A C123U U151G
A17U A26C G62A G86U C99U U134C A137U G140A A147U
A17U C79G C87U U144G
A17U A26U C36G A122U
A17U A20U A37U C51U C85U
C18G A24G G50A U56A G88U C93U G133U U148A
A17G A23U A24G A28C A29C C43U G62C G70A C85G G86A
A17G U53A G70U A107G A120C
C18A U31C C32G C35U G58C C85U
A17G C51G U55A C57U G92U C103A C108A
A17U A47C C51G U61A G83A
A17U C93G
C18A C85A G112C C116U
A17U A64C C85U C87A U101G A107C G141A
A17U A22G C36A G84U A120G
A17G A40U C87U C103G A115U C125U G133C
A17U A37U G83C A91C A98G G124U
A17G A30G C35U G50C C69A C75G C87G G143A U151G
C18G A24G A29C C75U C76A C87G
A17G U33A A40G G68U G92A
C18A G34U G71U C79G
A17G A29U C72A G81U G83U C108U G133U
A17U A20U C32A G34A C99U
A17G C69U C95U C116U G133A
A17U A23C C99U C108U U135A
A17G C35G G94C A119U U139G
C18A A22U G50A C85U U109G

Polymerase ribozyme fitness (log ratio), -3.98:
A17G A37U C87U C99A C123U

Polymerase ribozyme fitness (log ratio), -4.07:
C18G A21C A52G G84U G133C U134C

Polymerase ribozyme fitness (log ratio), -1.08:
A17U U55A

Polymerase ribozyme fitness (log ratio), -1.62:
A17G A37U A47U C85U

Polymerase ribozyme fitness (log ratio), -1.81:
C18G A19U G62C C85U C116A

Polymerase ribozyme fitness (log ratio), -1.89:
A17U C18A C54U U55G C75U C95A

Polymerase ribozyme fitness (log ratio), -1.83:
C18G A49U A119G

Polymerase ribozyme fitness (log ratio), -3.84:
A17G C18A G84C C93U

Polymerase ribozyme fitness (log ratio), -1.76:
A17G U134G

Polymerase ribozyme fitness (log ratio), -1.24:
A17U G94A

Polymerase ribozyme fitness (log ratio), -2.91:
C18A U31G G84C A89U

Polymerase ribozyme fitness (log ratio), -2.46:
A17G C93A

Polymerase ribozyme fitness (log ratio), -1.86:
A17U A73U C93U A120G

Polymerase ribozyme fitness (log ratio), -1.01:
A17U C85U U104G

Polymerase ribozyme fitness (log ratio), 0.0451:
A17G C75U C95U

Polymerase ribozyme fitness (log ratio), -4.02:
A17G A24U A26U G58A

Polymerase ribozyme fitness (log ratio), -0.89:
C18A A20G G46C U56C G94C C105G A122U

Polymerase ribozyme fitness (log ratio), -1.91:
A17U C114U

Polymerase ribozyme fitness (log ratio), -3.45:
A17G G46A C69A A121G

Polymerase ribozyme fitness (log ratio), -2.89:
A17G C93G

Polymerase ribozyme fitness (log ratio), -2.88:
C18A C69G C96U C103A

Polymerase ribozyme fitness (log ratio), -0.582:
A17G A89G

Polymerase ribozyme fitness (log ratio), -2.2:
A17G A37U U82C C96A

Polymerase ribozyme fitness (log ratio), -4.01:
C18G A37C C93A A115G
A17U G92U U101G U127G U148A
